# From the supplement of paper PMC8728848
# The other results are listed elsewhere or left out.
# How the values were obtained:
# Test in all cases: glycan array binding signal (z-score within array); higher = stronger binding
# Settings in all cases: glycan notation: IUPAC condensed, linker removed
# [1] = target: Gal(a1-3)[Gal(a1-4)]Gal(b1-4)GlcNAc
# How it was run: (§1)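 The binding signal is a Z-score computed within each array and averaged over linkers. Arrays of the same protein sequence at different concentrations or buffers were also averaged together. Data originate from 3228 arrays in the Consortium for Functional Glycomics database, kept only where the protein sequence was available.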
# [2] = target: Gal(a1-4)Gal(b1-3)GlcNAc(b1-2)Man(a1-3)[Gal(a1-4)Gal(b1-3)GlcNAc(b1-2)Man(a1-6)]Man(b1-4)GlcNAc(b1-4)GlcNAc
# How it was run: as §1
# Gal(a1-4)Gal(b1-4)Glc = target: Gal(a1-4)Gal(b1-4)Glc
# How it was run: as §1
# Gal(a1-4)Gal(b1-4)GlcNAc = target: Gal(a1-4)Gal(b1-4)GlcNAc
# How it was run: as §1
# [3] = target: Gal(a1-4)Gal(b1-4)GlcNAc(b1-2)Man(a1-3)[Gal(a1-4)Gal(b1-4)GlcNAc(b1-2)Man(a1-6)]Man(b1-4)GlcNAc(b1-4)GlcNAc
# How it was run: as §1
# [4] = target: Gal(a1-4)Gal(b1-4)GlcNAc(b1-3)Gal(b1-4)Glc
# How it was run: as §1
# Gal(a1-4)GlcNAc = target: Gal(a1-4)GlcNAc
# How it was run: as §1
# Gal(a1-6)Glc = target: Gal(a1-6)Glc
# How it was run: as §1
# Gal(b1-2)Gal = target: Gal(b1-2)Gal
# How it was run: as §1
# Gal(b1-3)Gal = target: Gal(b1-3)Gal
# How it was run: as §1
# Gal(b1-3)Gal(b1-4)GlcNAc = target: Gal(b1-3)Gal(b1-4)GlcNAc
# How it was run: as §1
# Gal(b1-3)GalNAc = target: Gal(b1-3)GalNAc
# How it was run: as §1
# [5] = target: Gal(b1-3)GalNAc(a1-3)[Fuc(a1-2)]Gal(b1-4)Glc
# How it was run: as §1
# [6] = target: Gal(b1-3)GalNAc(a1-3)[Fuc(a1-2)]Gal(b1-4)GlcNAc
# How it was run: as §1
# Gal(b1-3)GalNAc(b1-3)Gal = target: Gal(b1-3)GalNAc(b1-3)Gal
# How it was run: as §1
# [7] = target: Gal(b1-3)GalNAc(b1-3)Gal(a1-4)Gal(b1-4)Glc
# How it was run: as §1
# [8] = target: Gal(b1-3)GalNAc(b1-4)Gal(b1-4)Glc
# How it was run: as §1
# [9] = target: Gal(b1-3)GalNAc(b1-4)[Neu5Ac(a2-3)]Gal(b1-4)Glc
# How it was run: as §1
# Gal(b1-3)GlcNAc = target: Gal(b1-3)GlcNAc
# How it was run: as §1
# [10] = target: Gal(b1-3)GlcNAc(a1-3)Gal(b1-4)GlcNAc
# How it was run: as §1
# [11] = target: Gal(b1-3)GlcNAc(a1-6)Gal(b1-4)GlcNAc
# How it was run: as §1
# Gal(b1-3)GlcNAc(b1-2)Man = target: Gal(b1-3)GlcNAc(b1-2)Man
# How it was run: as §1
# [12] = target: Gal(b1-3)GlcNAc(b1-2)Man(a1-3)[Gal(b1-3)GlcNAc(b1-2)Man(a1-6)]Man(b1-4)GlcNAc(b1-4)GlcNAc
# How it was run: as §1
# [13] = target: Gal(b1-3)GlcNAc(b1-2)Man(a1-3)[Gal(b1-3)GlcNAc(b1-2)Man(a1-6)]Man(b1-4)GlcNAc(b1-4)[Fuc(a1-6)]GlcNAc
# How it was run: as §1
# [14] = target: Gal(b1-3)GlcNAc(b1-2)Man(a1-3)[GlcNAc(b1-4)][Gal(b1-3)GlcNAc(b1-2)Man(a1-6)]Man(b1-4)GlcNAc(b1-4)GlcNAc
# How it was run: as §1
# [15] = target: Gal(b1-3)GlcNAc(b1-2)[Gal(b1-3)GlcNAc(b1-6)]Man(a1-6)[Gal(b1-3)GlcNAc(b1-2)Man(a1-3)]Man(b1-4)GlcNAc(b1-4)GlcNAc
# How it was run: as §1
# [16] = target: Gal(b1-3)GlcNAc(b1-3)Gal(b1-3)GlcNAc
# How it was run: as §1
# [17] = target: Gal(b1-3)GlcNAc(b1-3)Gal(b1-4)Glc
# How it was run: as §1
# [18] = target: Gal(b1-3)GlcNAc(b1-3)Gal(b1-4)GlcNAc
# How it was run: as §1
# [19] = target: Gal(b1-3)GlcNAc(b1-3)Gal(b1-4)GlcNAc(b1-2)Man(a1-3)[Gal(b1-3)GlcNAc(b1-3)Gal(b1-4)GlcNAc(b1-2)Man(a1-6)]Man(b1-4)GlcNAc(b1-4)GlcNAc
# How it was run: as §1
# [20] = target: Gal(b1-3)GlcNAc(b1-3)Gal(b1-4)GlcNAc(b1-2)[Gal(b1-3)GlcNAc(b1-3)Gal(b1-4)GlcNAc(b1-6)]Man(a1-6)[Gal(b1-3)GlcNAc(b1-3)Gal(b1-4)GlcNAc(b1-2)Man(a1-3)]Man(b1-4)GlcNAc(b1-4)[Fuc(a1-6)]GlcNAc
# How it was run: as §1
# [21] = target: Gal(b1-3)GlcNAc(b1-3)Gal(b1-4)GlcNAc(b1-3)Gal(b1-4)GlcNAc(b1-2)[Gal(b1-3)GlcNAc(b1-3)Gal(b1-4)GlcNAc(b1-3)Gal(b1-4)GlcNAc(b1-6)]Man(a1-6)[Gal(b1-3)GlcNAc(b1-3)Gal(b1-4)GlcNAc(b1-3)Gal(b1-4)GlcNAc(b1-2)Man(a1-3)]Man(b1-4)GlcNAc(b1-4)[Fuc(a1-6)]GlcNAc
# How it was run: as §1
# [22] = target: Gal(b1-3)GlcNAc(b1-3)Gal(b1-4)GlcNAc(b1-6)[Gal(b1-3)GlcNAc(b1-3)]Gal(b1-4)Glc
# How it was run: as §1
# [23] = target: Gal(b1-3)GlcNAc(b1-3)Gal(b1-4)[Fuc(a1-3)]GlcNAc
# How it was run: as §1
# [24] = target: Gal(b1-3)GlcNAc(b1-3)Gal(b1-4)[Fuc(a1-3)]GlcNAc(b1-6)[Gal(b1-3)GlcNAc(b1-3)]Gal(b1-4)Glc
# How it was run: as §1
# [25] = target: Gal(b1-3)GlcNAc(b1-3)GalNAc
# How it was run: as §1
# [26] = target: Gal(b1-3)GlcNAc(b1-6)Gal(b1-4)GlcNAc
# How it was run: as §1
# [27] = target: Gal(b1-3)GlcNAc(b1-6)GalNAc
# How it was run: as §1
binder,measurement,setting,value
Cohesin-hDC-ASGPR (Homo sapiens) (protein) LDDLDAVRIKVDTVNAKPGDTVRIPVRFSGIPSKGIANCDFVYSYDPNVLEIIEIEPGDIIVDPNPDKSFDTAVYPDRKIIVFLFAEDSGTGAYAITKDGVFATIVAKVKEGAPNGLSVIKFVEVGGFANNDLVEQKTQFFDGGANVGDTTEPATPTTPVTTPTTTDDLDAASQNSKFQRDLVTLRTDFSNFTSNTVAEIQALTSQGSSLEETIASLKAEVEGFKQERQAGVSELQEHTTQKAHLGHCPHCPSVCVPVHSEMLLRVQQLVQDLKKLTCQVATLNNNASTEGTCCPVNWVEHQDSCYWFSHSGMSWAEAEKYCQLKNAHLVVINSREEQNFVQKYLGSAYTWMGLSDPEGAWKWVDGTDYATGFQNWKPGQPDDWQGHGLGGGEDCAHFHPDGRWNDDVCQRPYHWVCEAGLGQTSQESHHHHHH,glycan array binding signal (z-score),[1],-0.512
same,glycan array binding signal (z-score),[2],-0.444
same,glycan array binding signal (z-score),Gal(a1-4)Gal(b1-4)Glc,-0.467
same,glycan array binding signal (z-score),Gal(a1-4)Gal(b1-4)GlcNAc,-0.452
same,glycan array binding signal (z-score),[3],-0.424
same,glycan array binding signal (z-score),[4],-0.504
same,glycan array binding signal (z-score),Gal(a1-4)GlcNAc,-0.288
same,glycan array binding signal (z-score),Gal(a1-6)Glc,-0.403
same,glycan array binding signal (z-score),Gal(b1-2)Gal,0.407
same,glycan array binding signal (z-score),Gal(b1-3)Gal,-0.441
same,glycan array binding signal (z-score),Gal(b1-3)Gal(b1-4)GlcNAc,-0.492
same,glycan array binding signal (z-score),Gal(b1-3)GalNAc,-0.461
same,glycan array binding signal (z-score),[5],-0.465
same,glycan array binding signal (z-score),[6],-0.438
same,glycan array binding signal (z-score),Gal(b1-3)GalNAc(b1-3)Gal,0.028
same,glycan array binding signal (z-score),[7],1.98
same,glycan array binding signal (z-score),[8],-0.272
same,glycan array binding signal (z-score),[9],1.85
same,glycan array binding signal (z-score),Gal(b1-3)GlcNAc,-0.345
same,glycan array binding signal (z-score),[10],-0.482
same,glycan array binding signal (z-score),[11],-0.474
same,glycan array binding signal (z-score),Gal(b1-3)GlcNAc(b1-2)Man,-0.291
same,glycan array binding signal (z-score),[12],-0.47
same,glycan array binding signal (z-score),[13],-0.484
same,glycan array binding signal (z-score),[14],-0.372
same,glycan array binding signal (z-score),[15],-0.425
same,glycan array binding signal (z-score),[16],-0.451
same,glycan array binding signal (z-score),[17],-0.421
same,glycan array binding signal (z-score),[18],-0.46
same,glycan array binding signal (z-score),[19],0.26
same,glycan array binding signal (z-score),[20],0.077
same,glycan array binding signal (z-score),[21],0.209
same,glycan array binding signal (z-score),[22],-0.428
same,glycan array binding signal (z-score),[23],-0.431
same,glycan array binding signal (z-score),[24],-0.487
same,glycan array binding signal (z-score),[25],-0.452
same,glycan array binding signal (z-score),[26],-0.444
same,glycan array binding signal (z-score),[27],2.51
